In PubChem BioAssay:
Inconclusive means that the source gave no clear call. Such entries were picked first, then a sample of the others. The source made the active and inactive calls.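 How the source made its calls: active means fitted half-maximal concentration for viability loss no higher than twice the top valid dose, in every repeat run; inconclusive means repeat runs disagree, flat partial loss, or poor curve fit; inactive means the rest.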

Experiment: IOSE-T80 viability loss, PAX8-independent line – cell-based, cherry-pick, selectivity assay for PAX8 inhibitor project, dose response (AID 687032);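 further: cells exposed to compound for 96 h before reading; 0% = neutral control wells and -100% = 2 µM mitoxantrone kill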
Details: CellTiterGlo ATP luminescence, 96 h; at 35 µM (top of the series) unless noted

Structure (SMILES)	activity change, negative = viability loss
O=[N+]([O-])c1c(Nc2cccc(O)c2)cc(Cl)c2nonc12	inconclusive: 2.58%
C[C@@H]1CN([C@@H](C)CO)S(=O)(=O)c2ccc(C#CC3CCCC3)cc2O[C@H]1CN(C)Cc1cccnc1	inconclusive: 48.2%
COc1ccc(C(=O)NC(=S)NNC(=O)COc2ccccc2)cc1	inconclusive: 20.3%
CCOc1ccc(C(=O)C(CN2CCOCC2)c2ccccc2)cc1 (stereo not given)	inconclusive: 0.866%
CCCCCCN(C(=O)CCCN1C(=O)NC(c2ccc(-c3ccccc3)cc2)C(C(=O)OCc2ccccc2)=C1C)C(C)C(=O)NCCCC (stereo not given)	inconclusive: 2.44%
Cc1ccc(S(=O)(=O)Nc2ccc3c(c2)C(=O)N([C@@H](C)CO)C[C@@H](C)[C@H](CN(C)Cc2ccc(C(F)(F)F)cc2)OCCCC[C@H](C)O3)cc1	inconclusive: 7.82%
C(=C\c1ccc(C2[C@@H]3CN(Cc4ccc5c(c4)OCO5)C[C@H]2N3)cc1)/c1ccccc1 (stereo not given in full)	inconclusive: 23.1% [at 30 µM]
CCOC(=O)/C=C/C(=O)Nc1cc(S(=O)(=O)Nc2ccc(OC)cc2)ccc1N1CCOCC1	inconclusive: 8.29%
Cc1nnc(N/N=C/c2cccc(C(F)(F)F)c2)n1N	inconclusive: 24.5%
O=C(Cn1ncc(Cl)c(Cl)c1=O)Nc1ccc2c(c1)OCO2	inconclusive: 10.1%
COCCN(CC(=O)NC1CCCCC1)C(=O)/C=C/C(=O)c1ccc(OC)cc1O	inconclusive: -12.2%
C[C@@H]1CN([C@H](C)CO)C(=O)c2cc(NS(=O)(=O)c3ccc(F)cc3)ccc2O[C@@H](C)CCCCO[C@H]1CN(C)Cc1ccccc1	inactive: 14.4%
O=C(Nc1cccc(Br)c1)c1ccc2c(c1)SC1=NS(=O)(=O)CCN12	inactive: 21.6%
COc1ccc(C(=O)NC(=S)NNC(=O)c2c(-c3ccccc3)noc2C)cc1	inconclusive: 12%
CCCCCc1cc(=O)oc2c(C(CCN3CCCCC3)c3ccc4c(c3)OCO4)c(OC)cc(OC)c12 (stereo not given)	inconclusive: 6.15%
C[C@@H]1CCCCO[C@@H](CN(C)Cc2ccc(C(F)(F)F)cc2)[C@H](C)CN([C@H](C)CO)C(=O)c2cc(NS(=O)(=O)c3cccs3)ccc2O1	inconclusive: 1.68%
COc1cc(NC(=O)c2ccc([N+](=O)[O-])o2)ccc1NC(=O)c1ccco1	inconclusive: 12.8%
Cc1cc(OCCCn2cnc3ccccc3c2=O)ccc1[N+](=O)[O-]	inconclusive: 10.1%
N#Cc1nccnc1S(=O)(=O)c1cccs1	inconclusive: 10.9%
COc1ccc2c3c(n(C)c2c1)[C@H](CO)N(Cc1ccccc1)CC31CCN(S(=O)(=O)c2ccc(C)cc2)CC1	inactive: 11.9%

Structure (SMILES)	activity change, negative = viability loss
COc1cccc(S(=O)(=O)NCC(=O)Nc2ccc(C(C)(C)C)cc2)c1	inactive: -3.69%
NC1=C(Cl)C(=O)c2ccc(S(N)(=O)=O)cc2C1=O	inconclusive: 10.6%
C[n+]1c2n(c3ccccc31)N=C(c1cc(C(C)(C)C)c(O)c(C(C)(C)C)c1)CS2	inconclusive: 13.4%
Oc1ccc(C[C@H]2CN([C@@H](Cc3ccc(O)cc3)CN3CCC[C@@H]3CN3C(=S)NC[C@@H]3Cc3ccccc3)C(=S)N2CC2CCCCCC2)cc1	inconclusive: 6.53%
COc1cccc2c1C(=O)c1c(O)c3c(c(O)c1C2=O)CC(O)(C(C)=NNC(=O)c1ccc(Cl)c(Cl)c1)CC3OC1CC(N)C(O)C(C)O1 (stereo not given)	inconclusive: 21.7%
Cc1ccc(C(=O)O/N=C(\N)c2ccccn2)cc1	inconclusive: 2.08%
COc1cccc(S(=O)(=O)Nc2ccc3c(c2)[C@H]2C[C@H](CC(=O)NCc4ccccc4F)O[C@H](CO)[C@H]2O3)c1	inactive: 14.3%
OCC1OC(n2cnc3c(NCc4ccco4)ncnc32)C(O)C1O (stereo not given)	inactive: 9.36%
COc1ccccc1NC(=O)N1CCCCN2[C@@H](CO)[C@@H](c3ccc(C#Cc4ccccc4)cc3)[C@@H]2C1	inactive: 16.5%
O=[N+]([O-])c1cc2c(ccc3occc32)o1	inconclusive: -3.7%
COc1ccc(C(C)NC(=O)c2ccc(Br)cc2)cc1OC (stereo not given)	inconclusive: 15.4%
COc1ccc(OCc2cccc(C(=O)Nn3cc([N+](=O)[O-])cn3)c2)cc1	inconclusive: 11.2%
CCCC(=O)N1CCN(c2ccc(NC(=O)c3ccc([N+](=O)[O-])o3)cc2)CC1	inconclusive: 12.9%
O=C(c1ccco1)N1N=C(c2ccc(Br)cc2)CC1(O)C(F)(F)F (stereo not given)	inconclusive: 19.4%
C[C@@H]1CCCCO[C@H](CN(C)CC2CCCCC2)[C@H](C)CN([C@H](C)CO)C(=O)c2cc(NS(=O)(=O)c3ccccc3)ccc2O1	inactive: 11.3%
Cc1onc(C(=O)N2CCN(C(c3ccccc3)c3ccccc3)CC2)c1[N+](=O)[O-]	inconclusive: 11.7%
Cn1nnnc1Sc1ncnc2scc(-c3ccc[nH]3)c12	inconclusive: 7.16%
C[C@@H]1CN([C@H](C)CO)C(=O)c2cc(NC(=O)NC3CCCCC3)ccc2O[C@@H](C)CCCCO[C@H]1CN(C)Cc1ccc(C(F)(F)F)cc1	inconclusive: 7.03%
CCCCn1c(N)c(N(CCC(C)C)C(=O)COC(=O)c2ccc([N+](=O)[O-])s2)c(=O)[nH]c1=O	inconclusive: 18.9%
Cc1ccc(S(=O)(=O)CC(CN2CCCCC2)N2CCCCC2)cc1 (stereo not given)	inconclusive: 0.255%
